Here are results for one molecule from US9902766B2, “Antibodies to endoplasmin and their use” (University of Pittsburgh—Of The Commonwealth System of …, priority 2010, dated 2018).

Entries after “also recorded” stand apart in the source; their conditions may differ.

In test [1] the target is T1, WM1158 melanoma cell lysate (Homo sapiens, UniProt P14625).
T1 construct: A WM1158 melanoma cell lysate was immunoprecipitated with scFv W9; endogenous in cells; host or cells: WM1158 human melanoma cells (lysate)
Description: immunoprecipitation with scFv W9 and mass spectrometry of the band. It is filed as binding. Conditions: tryptic peptides SEQ ID NO: 7 and 8. An excerpt: FIGS. 3A and 3B. Identification of endoplasmin as the antigen recognized by scFv W9. A WM1158 melanoma cell lysate was immunoprecipitated with scFv W9. The -HLA class I-specific mAb TP25.99, and the HMW-MAA-specific scFv C21 were used as controls. Proteins in the precipitates were resolved on a reducing 10% SDS-PAGE and stained with Coomassie blue. The 94-KDa was unique to the W9 precipitate (A). Same results were obtained from lysates of T24 (bladder cancer), SUM149 (breast cancer), and SLR21 (renal cancer) cell lines. The specific bands were excised from the SDS gel and analyzed by mass spectrometry. Amino acids 102-115 of SEQ ID NO: 5 and amino acids 434 to 449 of SEQ ID NO: 5 are shown. The human protein identified in the 94-KDa bands is endoplasmin (SEQ ID NO: 5).
WM1158 cells (3×10^7) were washed, pelleted, and lysed in 1.5 ml of lysis buffer (50 mmol/L Tris, 4 mmol/L EDTA, 150 mmol/L NaCl, 0.5% NP40 containing 1 mmol/L phenylmethylsulfonyl fluride) containing protease inhibitors. Following a 30 min of incubation on ice, the cell lysate was spun at 13,000×g for 30 min at 4° C. The supernatant was collected, precleared by incubation with PG-Sepharose (Amersham Pharmacia Biotech AB, Uppsala, Sweden), and transferred to a tube containing 15 μl of packed protein G Sepharose, previously armed with 15 μg of mAb 9E10 and the periplasmic preparation of scFv W9, and 119 (negative control). […]

The test system of another test is COLO38 cells. Put plainly: inhibition by recombinant canine Grp94 of scFv W9 binding to cells. More on the design: species or system human. To be noted: two fold dilutions of RC-Grp94 preincubated with scFv W9; β2-microglobulin control. The protocol:
FIG. 6. Dose-dependent inhibition by recombinant canine enodplamsin (Grp94) of scFv W9 binding to COLO38 cells. […] The mixture was added to 96-well plate seeded with COLO38 cells. The binding of scFv was detected using mAb 9E10 and HPR-goat anti-mouse IgG antibodies. Absorbance was read at 450 nm. B2m was used as a control.

Another test relates to 293 cells. Description: flow cytometry binding of scFv W9 to electroporated, transfected 293 cells. Details: species or system human. To be noted: cells transfected with Grp94 cDNA and with the plasmid alone, 24 hours, versus untransfected cells. The method, then: FIGS. 7A and 7B. […] 293 cells were transfected with 3 μg of Grp94 HSP90B 1 cDNA clone by electroporation. Cells were incubated with scFv W9 and mAb 9E10, followed by incubation with FITC-goat anti-mouse IgG antibodies. Cells were analyzed by flow cytometry. The pCMV6-XL4 vector was used as a control. Untrasfected cells were used as a control. Electroporation increases the binding of scFv W9. The expression of the antigen recognized by scFv is regulated by heat shock.
293 cells were transfected with 3 μg of Grp 94 HSP90B 1 cDNA clone (Origene) using the Amaxa nucleofection technology and following the manufacturer's instructions (Amaxa, Cologne, Germany). The nucleofector program Q-001 was used. After transfection, cells were immediately suspended in 500 μl of pre-warmed DMEM culture medium supplemented with 10% FBS and plated in 6-well plates in a humidified 37° C., 5% CO2 incubator for 24 hours. Transfection efficiency was determined by flow cytometric analysis of GFP. The pCMV6-XL4 vector was used as a control. Transfection with Lipofectamine 2000 (Invitrogen, Carlsbad, Calif., USA) was performed according to the manufacturer's instructions.
The transfection efficiency (94%) was assessed by GFP expression. […] Cells were analyzed by flow cytometry. […]
On the technique in general: In flow cytometry, cells or beads pass a laser one at a time.

T1 sequence (P14625 22-803): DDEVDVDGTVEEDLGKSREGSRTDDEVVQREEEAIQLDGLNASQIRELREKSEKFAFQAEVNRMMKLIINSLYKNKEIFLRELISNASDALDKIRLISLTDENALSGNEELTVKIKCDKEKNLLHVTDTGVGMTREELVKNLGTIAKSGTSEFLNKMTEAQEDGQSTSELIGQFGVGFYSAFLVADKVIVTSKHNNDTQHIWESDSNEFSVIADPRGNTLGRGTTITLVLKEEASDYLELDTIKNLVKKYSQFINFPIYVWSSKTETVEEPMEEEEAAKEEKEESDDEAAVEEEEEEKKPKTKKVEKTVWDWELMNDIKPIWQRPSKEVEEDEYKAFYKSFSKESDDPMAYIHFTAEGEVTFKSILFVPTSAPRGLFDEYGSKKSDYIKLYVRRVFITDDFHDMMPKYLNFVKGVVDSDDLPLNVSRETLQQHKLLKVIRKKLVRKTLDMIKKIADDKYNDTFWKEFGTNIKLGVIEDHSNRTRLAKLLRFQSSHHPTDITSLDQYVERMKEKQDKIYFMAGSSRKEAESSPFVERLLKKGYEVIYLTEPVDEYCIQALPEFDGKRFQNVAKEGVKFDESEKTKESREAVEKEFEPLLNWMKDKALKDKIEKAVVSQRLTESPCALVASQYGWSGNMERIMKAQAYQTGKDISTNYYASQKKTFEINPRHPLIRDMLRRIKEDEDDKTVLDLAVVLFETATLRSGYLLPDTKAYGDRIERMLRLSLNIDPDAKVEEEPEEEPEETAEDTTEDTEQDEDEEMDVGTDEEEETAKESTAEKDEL

B1: scFv W9: human scFv fragment isolated from a synthetic phage scFv library by panning with melanoma cell line WM1158; binds endoplasmin (Grp94) (antibody, V domains shown)
VH: QVQLVQSGAEVKKPGASVKVSCKASGYTFTSYAMHWVRQAPGQRLEWMGWINAGNGNTKYSQKFQGRVTITRDTSASTAYMELSSLRSEDTAVYYCARAHFDYWGQGTLVTVS
VL: EIELTQSPSSLSASVGDRVTIT[omitted - about 80 residues]FGQGTKVEIK
modifications: left off: another chain or arm of the molecule; small tags and cut ends
In the case of B1, in test [1], the “antigen identified in the immunoprecipitated band by tandem mass spectrometry” value is “endoplasmin (Grp94)”. For the same molecule, the “inhibition by RC-Grp94 of scFv W9 binding to COLO38 cells” value in the test on COLO38 cells was “specifically inhibits; also recorded: dose dependent and specific”. Besides, in the test with 293 cells, the “binding to electroporated 293 cells (flow cytometry)” value is “strong increase”.
